Sequences with one replicate were seen in a single cluster, so their values are uncertain.
System: ATP
Experiment: switch fluorescence ratio, 500 uM ATP over buffer (Cy3 cluster intensity, sum of 5 cycles each) (fold (ratio)); higher = stronger signal-on switching upon ATP binding; sequences stand for … in TCGTCGGCAGCGTCAGATGTGTATAAGAGACAGTTTTTTTTTTTTTTTTTTTTTTTTT…TC
Details: aptamer strand: ATP DNA aptamer (quencher-CACCTGGGGGAGTATTGCGGAGGAAGG + anchor), 100 nM annealed; ATP concentration: 500 uM; one replicate
Summary of the method: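 The fluorescence ratio divides summed target-cycle Cy3 intensity by summed buffer-cycle Cy3 intensity for each cluster and is averaged per switch-domain sequence. Cy3-labelled switching-strand clusters on a modified Illumina MiSeq flow-cell were annealed to 100 nM quencher-labelled ATP aptamer, then imaged in selection buffer and again after 15 min with 500 uM ATP at 22 °C. Five such cycles were run, with NaOH stripping and re-annealing between them, and clusters outside 100-1000 RFU were excluded.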
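Note: ATP exposure 15 min at 22 °C before imaging.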

Row | Sequence | switch fluorescence ratio
1 | TTCTGATTCT | 1.02
2 | ACATTGGGA | 1.01
3 | CTCCGTCGCC | 1.34
4 | TGGTCAGCCA | 1.02
5 | AGCTACGGGG | 1.04
6 | CCACAAGAGT | 1.2
7 | CAATCTACCG | 1.07
8 | CAAGTGCTGG | 0.979
9 | CGTACGGTCA | 1.01
10 | GGGCGGTATC | 1.02
11 | TAATTCGCGC | 1.04
12 | TAAGAAAGAA | 1.01
13 | GAACGGGGCA | 1.08
14 | GCAATCATAC | 2.39
15 | ATGGCCGGAG | 1.04
16 | AAGGGATTCG | 1.05
17 | ATCAGCATAA | 1.27
18 | GCTTTAGGGG | 1.02
19 | TCGTTAAAGT | 1.16
20 | AACAGCAAGA | 1.06
21 | AGCAGTGAAA | 0.999
22 | GTCGCTGGGG | 0.965
23 | GATTGCAAAC | 1.89
24 | ATCATACGAC | 1.23
25 | AGTAATATT | 0.996
26 | CGGGCTGAGC | 1.04

Row | Sequence | switch fluorescence ratio
27 | AATCTATCTC | 1.02
28 | CGTCAGTGCG | 0.997
29 | TCTAGGGGCT | 1.04
30 | TAGCTGGGCA | 1.02
31 | AAATTAGCGT | 0.945
32 | GCATCGGCAT | 1.04
33 | TTTTAATTCT | 1
34 | TTCGAGCAGC | 1.05
35 | AGACTCTGC | 1.03
36 | TTGTAATAGC | 2.56
37 | AATTTATATG | 1.05
38 | CATATAGGCC | 0.946
39 | GTGTTTCGTG | 0.985
40 | TGCTGGCCGT | 1.01
41 | TATTTCCTTT | 0.978
42 | GGGCGCCAGT | 1
43 | GTTTATTTAC | 1.05
44 | TGATAGAGCT | 1.03
45 | GAGTATGCCT | 1.01
46 | TGCAGCGGAT | 0.987
47 | ATCCCTATTG | 0.999
48 | GGTCCTT | 1.02
49 | CATTCGTAAG | 1.07
50 | GATAGTACTG | 1.05
51 | AAGGGTTG | 0.987
52 | GATGGTGGAG | 0.998

Row | Sequence | switch fluorescence ratio
53 | GAGCATTTCA | 1.01
54 | CCTGAATTGA | 0.964
55 | GTGGCTGCCT | 1.01
56 | AGGTGGGGCC | 1.03
57 | TCCCCCGGGT | 4.67
58 | GCGACCAAGC | 1.01
59 | AGACCATAAT | 1.01
60 | TATTAGCTAA | 0.976
61 | GGTTTTGGAG | 1.01
62 | ACAGCTTTT | 0.982
63 | CTTCCGTCTG | 1.56
64 | AAGAAAGGAC | 2.66
65 | ACAGCGAATG | 1.03
66 | GGCCGAGTTG | 0.98
67 | GAGTCATTG | 1.02
68 | ATTCTATGGG | 1
69 | GCGATCGGAG | 1.05
70 | AAGGAGCG | 0.974
71 | GAAGAAGAGG | 1.01
72 | CCGGGTTTCC | 0.971
73 | TTTGGGACTA | 1
74 | GGGCATGAAC | 0.996
75 | TGTGATGATA | 0.989
76 | AGAACTAATT | 0.954
77 | CTTTTAACAT | 1.04
78 | CCCCAAGTTC | 1.16

Row | Sequence | switch fluorescence ratio
79 | CGCTTTAAAC | 1.41
80 | ACTCAACGGA | 1.12
81 | AAAGCTGCTC | 1.06
82 | CAGAAGCTGT | 1.17
83 | ACGTGCTTTG | 1.01
84 | TAATATGACA | 1.03
85 | TTTGTACATA | 1.03
86 | TGACTGATGC | 1.09
87 | ACATACAGTA | 1.26
88 | CTGGGGCTCG | 0.939
89 | AGGGTATTC | 1.02
90 | TGGGGCACA | 1.02
91 | CGCCTAAGTG | 1.01
92 | TTGCAGGTAT | 1.06
93 | CTCGAGTTAC | 1.14
94 | TGCGGGTGTT | 0.973
95 | GCCGGAACTG | 1.09
96 | AGCGTAATCT | 1.05
97 | GATTCCCGAA | 0.995
98 | TGCGGTAGTT | 0.963
99 | TTAAACTGCG | 1.03
100 | CGATATTCAG | 1.03
101 | AGTTTTTTCT | 0.984

— the supplement of paper PMC10126150
